Legend:
[1] = tested on: healthy subjects; assay: Safety test on healthy subjects (Example 19); type: in vivo, human; conditions: for HbA1c change / blood sugar level change: 4 weeks; for HbA1c change: FIG. 9; for blood sugar level change: FIG. 10
Method: As a safety test, healthy subjects started to ingest 25 mg of ALA phosphate and iron citrate in an amount of 0.5-fold in molar ratio of ALA per day, which ingestion was continued for 4 weeks. Blood was tested every two weeks including before ingestion, and after termination of ingestion. […] Further, the stratified results of healthy subjects which were divided into a group in which HbA1c before ingestion was higher than 4.8, and a group in which HbA1c before ingestion was 4.8 or less are observed in FIG. 9. […] Similarly, change of blood sugar level when the subjects were divided into a group with fasting blood sugar level of 90 or more, and a group with a level of less than 90 is shown in FIG. 10.

[2] = tested on: healthy subjects; assay: Double-blind test, 30 men and women, biochemical examination of blood (Example 13); type: in vivo, human
Method: After obtaining informed consent before the initiation of the test, 30 men and women of age 22 to 63 participated in a double-blind test, and ingested a soft capsule comprising ALA phosphate, and ALA phosphate and ferrous citrate. Groups I, II, and III all ingested 1 capsule per day continuously for 4 weeks. The capsule of Group I comprised 5 mg of ALA phosphate; the capsule of Group II comprised 15 mg of ALA phosphate; and the capsule of Group III comprised 5 mg of ALA phosphate and 2.87 mg of ferrous citrate. Biochemical examination of blood was performed 2 weeks and 4 weeks after initiating ingestion, and 2 weeks after the end of the test.
Thus, the effect of prevention/amelioration of the present invention was shown.

[3] = Biochemical values after ingestion of ALA phosphate/sodium ferrous citrate capsules, individual males (Examples 1, 2); type: in vivo, human; conditions: person
Method: A person ingested 1 capsule comprising 5 mg of aminolevulinic acid phosphate and 2.87 mg of sodium ferrous citrate per day, and improvement of the following biochemical values was observed 1 month after.

[4] = Symptom case reports after ingestion or application (Examples 3, 5-12); conditions: person; for migraine: 1 capsule (5 mg + 23 mg sodium ferrous citrate) per day; for physical and mental feeling: from the day following the ingestion
[5] = tested on: type II diabetes patient; assay: Fasting blood sugar / HbA1c in type II diabetes patients (Examples 15, 17, 18); type: in vivo, human
Method: A type II diabetes patient was having insulin treatment, and was administered insulin in an amount of 10 units in the morning, 5 units at noon, and 10 units in the evening.
A person suffering from type II diabetes, had been living being careful of their eating habit and taking exercises under the guidance of their doctor, while HbA1c increased gradually. On Nov. 7, 2008, they started to ingest 50 mg of ALA phosphate and iron citrate in an amount of 0.5-fold in molar ratio of ALA per day. […] Meanwhile, the fasting blood sugar level on Nov.
A person having type II diabetes started to digest 15 mg of ALA phosphate and iron citrate in an amount of 0.5-fold in molar ratio of ALA per day, interrupted the ingestion once, and then restarted the ingestion. […] HbA1c is ameliorated by ingestion.

[6] = tested on: borderline diabetes patient; assay: HbA1c in a borderline diabetes patient ingesting the capsule (Examples 4, 16); type: in vivo, human
Method: A person being a borderline diabetes patient ingested 1 capsule comprising 5 mg of aminolevulinic acid phosphate and 2.87 mg of sodium ferrous citrate per day, and improvement of the following biochemical values was observed 1 month, 2 months, and 3 months after initiating ingestion.
The patient of Example 4 continued ingestion under the same conditions.

[7] = tested on: borderline diabetes patients; assay: Pilot study in diabetes patients by 5-ALA (Example 20, Table 1); type: in vivo, human
Excerpt: HbA1c was ameliorated in all of 6 patients, showing that the present invention is highly probable.

[8] = tested on: KK-Ay mice; assay: Type II diabetes mouse models, ALA and iron administration (Example 14); conditions: 10 mg ALA + 92 mg sodium ferrous citrate, or 30 mg ALA + 276 mg, per 1 kg of body weight
[9] = Group II: 15 mg capsule per day, in 4 weeks
[10] = Group III: 5 mg + 2.87 mg ferrous citrate capsule per day, in 2 weeks
[11] = 1 capsule (5 mg + 2.87 mg sodium ferrous citrate) per day, from 2 days after initiating ingestion
[12] = 1 capsule (50 mg + 57.4 mg sodium ferrous citrate) per day, after 3 months
[13] = 2 capsules (each 5 mg + 23 mg sodium ferrous citrate) per day, from 1 week after initiating ingestion
[14] = person, type II diabetes, 15 mg + iron citrate 0.5-fold molar per day, FIG. 8
[15] = patient of Example 4, same conditions continued, before initiation 7.4
[16] = person, 1 capsule (5 mg + 2.87 mg sodium ferrous citrate) per day, before initiation 7.4

Compound: NCC(=O)CCC(=O)O.O=P(O)(O)O [aminolevulinic acid phosphate, 5-aminolevulinic acid phosphate]
- blood test, average levels ([1]; 25 mg + iron citrate 0.5-fold molar per day for 4 weeks): No significant change
- HbA1c change ([1]; group with HbA1c before ingestion 4.8 or less, 25 mg + iron citrate per day): rather increasing tendency
- HbA1c change ([1]; group with HbA1c before ingestion higher than 4.8, 25 mg + iron citrate per day): some decreasing tendency
- blood sugar level change ([1]; group with fasting blood sugar level of 90 or more, 25 mg + iron citrate per day): mild decrease
- blood sugar level change ([1]; group with fasting blood sugar level of less than 90, 25 mg + iron citrate per day): almost no change
- HDL-cholesterol ([2]; Group I: 5 mg capsule per day, at 4 weeks, before 64.6±17.3): 60.9 ± 15.8 mg/dL
- HDL-cholesterol decrease ([2]; Group I: 5 mg capsule per day, in 4 weeks): 3.7 ± 4.9 mg/dL
- ALP ([2]; Group II: 15 mg capsule per day, at 2 weeks, before 195.2±74.7): 177.2±55.2 U/L
- Creatinine ([2]; Group II: 15 mg capsule per day, at 4 weeks, before 0.701±0.134): 0.661 ± 0.109 mg/dL
- Total proteins ([2]; Group II: 15 mg capsule per day, at 4 weeks, before 7.28±0.48): 6.99 ± 0.47 g/dL
- ALP decrease ([2]; Group II: 15 mg capsule per day, in 2 weeks): 18.0±23.2 U/L
- Creatinine decrease [2, 9]: 0.040 ± 0.037 mg/dL
- Total proteins decrease [2, 9]: 0.29 ± 0.22 g/dL
- Na increase ([2]; Group III: 5 mg + 2.87 mg ferrous citrate capsule per day, 2 weeks after the end of the test): 0.7±0.7 mEq/L
- Na ([2]; Group III: 5 mg + 2.87 mg ferrous citrate capsule per day, 2 weeks after the end of the test, before 140.4±1.6): 141.1±1.5 mEq/L
- Albumin ([2]; Group III: 5 mg + 2.87 mg ferrous citrate capsule per day, at 2 weeks, before 4.43±0.26): 4.31 ± 0.26 g/dL
- HDL-cholesterol ([2]; Group III: 5 mg + 2.87 mg ferrous citrate capsule per day, at 2 weeks, before 67.8±12.4): 65.2 ± 11.7 mg/dL
- LDL-cholesterol ([2]; Group III: 5 mg + 2.87 mg ferrous citrate capsule per day, at 2 weeks, before 122.5±20.6): 111.8 ± 25.9 mg/dL
- Total cholesterol ([2]; Group III: 5 mg + 2.87 mg ferrous citrate capsule per day, at 2 weeks, before 204.1±21.0): 190.9 ± 30.3 mg/dL
- Albumin decrease [2, 10]: 0.12 ± 0.11 g/dL
- HDL-cholesterol decrease [2, 10]: 2.6 ± 2.8 mg/dL
- LDL-cholesterol decrease [2, 10]: 10.7 ± 7.8 mg/dL
- Total cholesterol decrease [2, 10]: 13.2 ± 15.0 mg/dL
- HDL-cholesterol decrease ([2]; listed under Group III (5 mg + 2.87 mg ferrous citrate), 2 weeks after the end of the test): 2.8 ± 3.7 mg/dL
- HDL-cholesterol ([2]; listed under Group III (5 mg + 2.87 mg ferrous citrate), 2 weeks after the end of the test, before 67.8±12.4): 65.0 ± 11.4 mg/dL
- HbA1c ([3]; 1 capsule (5 mg + 2.87 mg sodium ferrous citrate) each morning and afternoon, after 2 weeks, before 6.2, in %): 6.2 → 5.9
- GPT ([3]; 1 capsule (5 mg + 2.87 mg sodium ferrous citrate) each morning and afternoon, after 2 weeks, before 17): 17 → 15
- GOT ([3]; 1 capsule (5 mg + 2.87 mg sodium ferrous citrate) each morning and afternoon, after 2 weeks, before 19): 19 → 19
- γ-GTP ([3]; 1 capsule (5 mg + 2.87 mg sodium ferrous citrate) each morning and afternoon, after 2 weeks, before 60): 60 → 48
- TG ([3]; 1 capsule (5 mg + 2.87 mg sodium ferrous citrate) each morning and afternoon, after 2 weeks, before 314, in mg/dL): 314 → 132
- HDL ([3]; 1 capsule (5 mg + 2.87 mg sodium ferrous citrate) per day, 1 month after, before 65, in mg/dL): 65 → 58
- LDL ([3]; 1 capsule (5 mg + 2.87 mg sodium ferrous citrate) per day, 1 month after, before 192, in mg/dL): 192 → 173
- TC ([3]; 1 capsule (5 mg + 2.87 mg sodium ferrous citrate) per day, 1 month after, before 264, in mg/dL): 264 → 260
- hypertension ([4]; 1 capsule (5 mg + 2.87 mg sodium ferrous citrate) per day): ameliorated
- shoulder discomfort ([4]; 1 capsule (5 mg + 2.87 mg sodium ferrous citrate) per day, from 1 week after initiating ingestion): Improvement
- constipation [4, 11]: not observed
- sensitivity to cold temperature [4, 11]: ameliorated
- migraine ([4]; after 1 week of ingestion): completely cured
- migraine ([4]; from the day after initiating ingestion): amelioration
- body weight decrease [4, 12]: 5 kg
- gray hair and crimples [4, 12]: ameliorated
- body weight ([4]; 1 capsule (50 mg + 57.4 mg sodium ferrous citrate) per day, after 3 months, before 79 kg): 74 kg
- physical and mental feeling ([4]; 1 capsule (50 mg + 57.4 mg sodium ferrous citrate) per day): felt fulfilled physically and mentally
- blood pressure after stopping antihypertensives ([4]; 1 capsule per day, antihypertensives stopped 1 month after): maintained a normal level
- shoulder discomfort ([4]; 1 wt % each with DTPA iron applied once a day to the sites, in a week): gone
- sexual intercourse ([4]; 2 capsules (each 5 mg + 2.87 mg sodium ferrous citrate) per day, the next day of ingestion): for the first time in a year
- erection ([4]; 2 capsules (each 5 mg + 2.87 mg sodium ferrous citrate) per day, the next morning): observed
- physical strength and facial rejuvenation [4, 13]: felt improvement
- symptoms of menopausal disorder such as hot-flash or frustration [4, 13]: gone
- physical and mental feeling ([4]; 2 capsules (each 5 mg + 23 mg sodium ferrous citrate) per day): felt fulfilled physically and mentally
- sexual intercourse ([4]; 2 capsules (each 5 mg + 23 mg sodium ferrous citrate) per day, three days after initiating ingestion): for the first time in half a year
- HbA1c during ingestion [5, 14]: ameliorated
- HbA1c when the ingestion was interrupted [5, 14]: increased
- HbA1c ([5]; person, type II diabetes, 50 mg + iron citrate 0.5-fold molar per day, FIG. 7): rapid improvement
- fasting blood sugar level ([5]; person, type II diabetes, 50 mg + iron citrate 0.5-fold molar per day, May 9, 2009 (start Nov. 7, 2008: 195 mg/dl)): 107 mg/dL
- fasting blood sugar, average decrease ([5]; type II diabetes patient on insulin, 25 mg + iron citrate 0.5-fold molar per day, in 1 month, FIG. 5 auxiliary line): about 15 mg/dl
- diabetes status ([6]; patient of Example 4, at eight months): completely free of diabetes
- HbA1c eight months later [6, 15]: 5.2
- HbA1c five months after the initiation of administration [6, 15]: 5.9
- HbAlc After 1 month [6, 16]: 7.2
- HbAlc After 2 months [6, 16]: 6.9
- HbAlc After 3 months [6, 16]: 6.8

Compound: NCC(=O)CCC(=O)O [ALA, 5-aminolevulinic acid]
- HbA1c(%) after ([7]; 10 mg/day, 0.5 month, before 6.2): 5.9%
- HbA1c(%) after ([7]; 10 mg/day, 2 month, before 6.7): 5.7%
- HbA1c(%) after ([7]; 10 mg/day, 8 month, before 7.4): 5.2%
- HbA1c(%) after ([7]; 50 mg/day, 3 month, before 6.1): 5.7%
- blood sugar levels ([8]; FIG. 1): decreased
- sugar tolerance ability (glucose tolerance test) ([8]; FIG. 2): increased
- insulin secretion ([8]; FIG. 4): ameliorated

Source: patent US9730904B2, “Prophylactic/ameliorating agent for adult diseases comprising 5-aminolevulinic acid, derivative of 5-aminolevulinic acid, or salt of 5-aminolevulinic acid or the derivative of 5-aminolevulinic acid as active ingredient” (priority 2008, dated 2017)
